# About 40 (2%) of roughly 1,900 compounds showed an effect of 50% or more. The list shows a part of the results. Residues, ends and D or L forms follow the SMILES beside them.
# Target: human SGLT1 (hSGLT1) (human, UniProt P13866)
# Experiment: primary screen, percent of control activity; higher = less effect of the substance
# Parameters: single well
# Details: 50 µM
# Method in brief: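 Single-point screen at 50 µmol/L in CHO-hSGLT1 cells, with 160 µmol/L 1-NBD-glucose in glucose-free DMEM for 90 min at 37°C. Fluorescence from isopropanol extracts was calibrated, and CHO wild-type uptake was subtracted. Data are percent of uptake without compound.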
# human SGLT1 (hSGLT1), sequence (P13866 whole entry, looked up): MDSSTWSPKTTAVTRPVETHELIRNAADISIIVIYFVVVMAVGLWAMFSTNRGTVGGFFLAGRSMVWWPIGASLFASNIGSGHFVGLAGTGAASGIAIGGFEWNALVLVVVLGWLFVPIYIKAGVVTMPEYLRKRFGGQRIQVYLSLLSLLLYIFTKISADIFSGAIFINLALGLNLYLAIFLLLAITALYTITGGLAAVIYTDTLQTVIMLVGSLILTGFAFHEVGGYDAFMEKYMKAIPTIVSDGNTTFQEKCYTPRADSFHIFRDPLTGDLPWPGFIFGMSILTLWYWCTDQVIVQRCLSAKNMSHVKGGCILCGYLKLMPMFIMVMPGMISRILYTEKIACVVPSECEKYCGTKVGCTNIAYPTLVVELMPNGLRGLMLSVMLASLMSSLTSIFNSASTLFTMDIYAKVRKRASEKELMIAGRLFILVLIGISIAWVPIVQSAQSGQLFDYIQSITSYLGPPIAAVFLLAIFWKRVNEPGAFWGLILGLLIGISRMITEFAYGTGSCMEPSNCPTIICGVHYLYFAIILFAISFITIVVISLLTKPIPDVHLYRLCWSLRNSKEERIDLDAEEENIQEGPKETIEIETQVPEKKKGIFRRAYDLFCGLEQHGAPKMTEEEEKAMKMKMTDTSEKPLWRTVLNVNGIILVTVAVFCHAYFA
row,Structure (SMILES),NORMALIZED SGLT1 ACTIVITY (%)
1,CC(C)C(=O)Nc1ccc([N+](=O)[O-])c(C(F)(F)F)c1,285%
2,CCOP(=S)(OCC)Oc1cc(C)nc(C(C)C)n1,107%
3,C=CC(C1=CC(=O)C=CC1=O)c1ccccc1 (stereo not shown),404%
4,CCOC(N)=O,85%
5,Cl.N=C(N)NC(=O)c1nc(Cl)c(N)nc1N,106%
6,NNCCc1ccccc1.O=S(=O)(O)O,177%
7,CN1CCN(CC/C=C2/c3ccccc3Sc3ccc(S(=O)(=O)N(C)C)cc32)CC1,116%
8,CC(=O)Oc1ccc(Cl)c2cccnc12,202%
9,OC(Cn1cncn1)(Cn1cncn1)c1ccc(F)cc1F,113%
10,CC(=O)Oc1ccc(-c2cc(=O)c3c(OC(C)=O)cc(OC(C)=O)cc3o2)cc1,128%
11,C#CCOS(=O)OC1CCCCC1Oc1ccc(C(C)(C)C)cc1 (stereo not shown),108%
12,COC(=O)CC1C(C)(C)C(OC(C)=O)[C@@H]2[C@@H](OC(C)=O)[C@]34O[C@@]2(O)[C@]1(C)C3CC[C@]1(C)C4=CC(=O)O[C@H]1c1ccoc1 (stereo partly shown),94%
13,O=C(OCC(O)CO)c1ccccc1Nc1ccnc2cc(Cl)ccc12 (stereo not shown),248%
14,CC(=O)S[C@@H]1CC2=CC(=O)CC[C@]2(C)[C@H]2CC[C@@]3(C)[C@@H](CC[C@@]34CCC(=O)O4)[C@H]12,107%
15,CCOC(=O)CCCCCCCCCCCCC1C=CCC1 (stereo not shown),127%
16,CC(C)CCCC1(C)C=Cc2c(O)c3c(c(CCC(C)C)c2O1)OC12C(CC4CC1C(C)(C)OC2(CCC(C)C(=O)O)C4O)C3=O (stereo not shown),111%
17,C/C=C1\[C@H]2C=C(C)C[C@]1(N)c1ccc(=O)[nH]c1C2,109%
18,COc1cc2c(cc1OC)[C@@H]1C(=O)c3ccc4c(c3O[C@@H]1CO2)CC(C(C)C)O4 (stereo partly shown),81%
19,Oc1ccc(Cl)cc1,111%
20,Br.CC(N)Cc1ccc(O)cc1 (stereo not shown),117%
21,CC(=O)O.NCCCCC(N)C(=O)NC(Cc1ccc(O)cc1)C(=O)NC(CCCCN)C(=O)O (stereo not drawn) (H-Lys-Tyr-Lys-OH; configuration not given here),179%
22,CCC(C(N)=O)c1ccccc1 (stereo not shown),79%

row,Structure (SMILES),NORMALIZED SGLT1 ACTIVITY (%)
1,CCCCN(CCCC)CCCOC(=O)c1ccc(N)cc1,52%
2,CNC[C@@H](O)c1ccc(O)c(O)c1.O=C(O)C(O)C(O)C(=O)O,105%
3,Cc1ccc(N(CC2=NCCN2)c2cccc(O)c2)cc1.Cl,62%
4,CC(=O)OCC(=O)[C@@]1(O)CC[C@H]2[C@@H]3CCC4=CC(=O)CC[C@]4(C)[C@@]3(F)[C@@H](O)C[C@@]21C,124%
5,CN1CCN(C(c2ccccc2)c2ccccc2)CC1,87%
6,Cc1cc(C(C)(C)C)c(O)c(C)c1CC1=NCCN1.Cl,81%
7,CC(=O)[C@@]1(O)CC[C@H]2[C@@H]3C=C(Cl)C4=CC(=O)[C@@H]5C[C@@H]5[C@]4(C)[C@H]3CC[C@@]21C,183%
8,CC[C@@H](C(=O)C(C)[C@@H](O)[C@H](C)CCc1ccc(C)c(O)c1C(=O)[O-])C1OC(CC)(C2CC[C@](O)(CC)[C@H](C)O2)C[C@@H]1C.[Na+] (stereo partly shown),125%
9,Oc1ccc(Cl)cc1Cc1cc(Cl)ccc1O,590%
10,CC(=O)O[C@@H]1CC2C(C)(C)C(=O)C=C[C@]2(C)C2CC[C@]3(C)C(=CC(=O)O[C@H]3c3ccoc3)[C@@]21C (stereo partly shown),215%
11,NC(=O)CN1CCCC1=O,141%
12,COc1ccc2c(c1)CCC1C2CCC2(C)C1C[C@@H](O)C2O (stereo partly shown),100%
13,C#CCCCCCCCCCCCC(O)CC(O)CO (stereo not shown),152%
14,CCOC(=O)CCC(=O)O[C@H]1[C@H](O[C@@H]2[C@@H](C)[C@H](O[C@H]3C[C@@](C)(OC)[C@@H](O)[C@H](C)O3)[C@@H](C)C(=O)O[C@H](CC)[C@@](C)(O)[C@H](O)[C@@H](C)C(=O)[C@H](C)C[C@@]2(C)O)O[C@H](C)C[C@@H]1N(C)C,115%
15,CC(C)(C)NC[C@H](O)c1ccc(O)c(CO)c1.Cl,155%
16,COc1ccc(-c2coc3cc(OC)cc(OC)c3c2=O)cc1,150%
17,Cc1cc(C(C)(C)C)cc(C)c1CC1=NCCN1.Cl,79%
18,COc1cc2occc2c2oc(=O)ccc12,146%
19,C=Cc1c(C)c2[n]3c1C=c1c(C)c(CC)c4[n]1[Cu]31[n]3c(c(C)c5c3C(=c3c(CCC(=O)[O-])c(C)c([n]31)=C2)C(C(=O)[O-])C5=O)C=4.[Na+].[Na+] (stereo not shown),94%
20,CCCCC(=O)Oc1ccccc1C(=O)O,102%
21,C/C=C(\C)C(=O)O[C@@H]1c2c(ccc3ccc(=O)oc23)OC(C)(C)[C@@H]1OC(C)=O,5%

# From publication PMC6664820, “Novel natural and synthetic inhibitors of solute carriers SGLT1 and SGLT2” (Pharmacology Research & Perspectives, 2019)
